# In all, about 33,000 sequences were measured (“E-score (-0.5 to 0.5)”: median about -0.043, highest 2% from about 0.37 on). Some of the results follow.
# Molecular target: T1, Upc2 (UniProt Q12151)
# T1 sequence: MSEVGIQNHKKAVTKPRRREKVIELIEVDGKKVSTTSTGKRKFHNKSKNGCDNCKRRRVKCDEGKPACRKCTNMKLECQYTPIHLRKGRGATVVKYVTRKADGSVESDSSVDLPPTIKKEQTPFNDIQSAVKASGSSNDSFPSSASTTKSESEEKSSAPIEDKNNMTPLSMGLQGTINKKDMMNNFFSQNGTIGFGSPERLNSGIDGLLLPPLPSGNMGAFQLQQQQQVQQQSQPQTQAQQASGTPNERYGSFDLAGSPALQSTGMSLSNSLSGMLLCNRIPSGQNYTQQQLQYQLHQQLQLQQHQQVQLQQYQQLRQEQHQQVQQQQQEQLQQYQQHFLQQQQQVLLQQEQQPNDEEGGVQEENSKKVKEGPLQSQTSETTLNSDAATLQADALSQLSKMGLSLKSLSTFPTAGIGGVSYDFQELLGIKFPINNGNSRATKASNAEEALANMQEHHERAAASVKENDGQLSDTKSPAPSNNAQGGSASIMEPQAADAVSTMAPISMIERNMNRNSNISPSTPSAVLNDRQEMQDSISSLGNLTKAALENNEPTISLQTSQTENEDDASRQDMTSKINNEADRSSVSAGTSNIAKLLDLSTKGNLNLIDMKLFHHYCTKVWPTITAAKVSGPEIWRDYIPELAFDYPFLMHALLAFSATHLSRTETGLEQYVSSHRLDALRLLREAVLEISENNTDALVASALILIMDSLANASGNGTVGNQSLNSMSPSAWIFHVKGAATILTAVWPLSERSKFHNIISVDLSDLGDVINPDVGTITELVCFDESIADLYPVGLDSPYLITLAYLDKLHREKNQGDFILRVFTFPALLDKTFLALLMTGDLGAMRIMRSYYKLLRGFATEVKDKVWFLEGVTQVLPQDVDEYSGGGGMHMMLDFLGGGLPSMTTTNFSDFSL
# Assay: PBM E-score (8-mer binding enrichment) (E-score (-0.5 to 0.5)); higher = stronger / more preferred TF binding; most listed sequences are background and not binding sites
# Conditions: protein concentration: 200 nM; construct: GST-full length
# Outline: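 For each ungapped eight-base word taken together with its reverse complement, the Universal PBM Analysis Suite assigned an E-score. Binding data came from GST-tagged yeast transcription factors, applied at about 100-200 nM, on universal all-10-mer Agilent arrays made double-stranded by primer extension. Fluorescent anti-GST marked bound protein, and scans were normalised with masliner.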
row,Sequence,PBM E-score
1,CAACCAGG,-0.171
2,CAATTAGA,-0.0498
3,CACGTGAC,-0.185
4,CCATCGGC,-0.102
5,CTCTTCAC,-0.00638
6,AATAATCA,0.146
7,GCTTTTGA,-0.0714
8,CATCATGG,-0.227
9,AGCTCCAG,-0.0649
10,CCGCGATA,0.164
11,CATTTTAA,-0.0408
12,GCACGAGA,0.0181
13,GCCGGTTA,0.0702
14,CAAGTCGA,-0.225
15,AGCCCGAA,-0.143
16,CGCACGAA,0.107
17,GACTTCAA,-0.155
18,ACAGCGTG,0.0181
19,ACTTGGTG,-0.184
20,CCGGTGTC,-0.198
21,AGAGAACT,0.0757
22,AAGCTATG,-0.0725
23,TCGCTCCA,0.193
24,GCACAACA,-0.122
25,ACCACTGC,-0.232

row,Sequence,PBM E-score
1,AGGACGCA,-0.146
2,CCCCGCGG,-0.0219
3,GGTCGCTA,0.0544
4,GGTTTATA,0.144
5,GATCGTCA,-0.114
6,AAGAGCAG,-0.206
7,ACTCGGAT,0.252
8,AGGTCAAC,-0.0434
9,CCTGGCCA,-0.23
10,ATCGTCGA,-0.0998
11,GCTAGAAC,-0.0195
12,CGTCCGCC,-0.165
13,GATGCGGA,-0.151
14,CCTGGAAC,0.194
15,GGGTGCAC,-0.128
16,CCAGATCA,-0.136
17,GTCTCTCA,-0.113
18,ATAATACC,-0.0586
19,CAAATTAG,-0.0546
20,AAATGTTA,-0.0925
21,GGGCTGCA,-0.102
22,GGCTGTAC,0.125
23,ATCGACCC,-0.14
24,AAGGATGG,-0.191
25,GGTAATGA,-0.0164

row,Sequence,PBM E-score
1,CGAATGCG,0.274
2,ACTGTCCC,-0.0858
3,AAGAGGGC,-0.121
4,TAGTCGCA,0.0294
5,CTGATTTC,0.0823
6,CAGGGCCA,-0.077
7,AACGCTAT,0.0885
8,ACGATCCT,0.296
9,CTCAGCCA,-0.175
10,TAATAAAA,0.0277
11,GCCAAAAC,-0.0908
12,CACACCCG,0.0898
13,AGGTCCAA,-0.208
14,CAGGATAA,-0.074
15,AACGGATT,0.2
16,CAATATTC,0.0379
17,CCAGGAAC,0.109
18,ATGCGGGG,-0.165
19,CTCATTTA,-0.0954
20,AGACAGTC,-0.0784
21,AACTGAAG,-0.0822
22,TCAAGGCA,-0.37
23,GCAATGGC,-0.172
24,CCTCGGAG,-0.0377
25,AGCCAGAA,-0.269

row,Sequence,PBM E-score
1,ACGTTGTA,0.0665
2,GGGACACC,-0.175
3,CAAGTGCC,-0.316
4,CTCGGGAC,-0.0315
5,ACTGGGCG,-0.178
6,ACGGTGCA,0.169
7,TACTGTGA,0.0563
8,GCTTGAAC,0.199
9,CATCAGAG,-0.104
10,CCGGCGGA,-0.185
11,ACCGATAG,-0.0483
12,CCGGACCG,0.0283
13,TACAAAGA,0.134
14,AGCAATCC,-0.121
15,GGACCGGA,0.0634
16,AGGACCGG,-0.294
17,GAATATCA,0.0192
18,CGTGAAGA,-0.0205
19,CTGGACGC,-0.288
20,ACCAAAAC,0.0425
21,ACCGGGAG,-0.115
22,ATGTCTCC,-0.11
23,TAACACTA,0.179
24,CTACTTGA,-0.0786
25,ATGTGGAC,-0.212

row,Sequence,PBM E-score
1,GCTCTAGA,-0.166
2,ATGGACGA,-0.114
3,GGCAGCCA,-0.234
4,CCTTCTTA,-0.0392
5,CAGATCCC,-0.0143
6,ATAAGATC,0.0589
7,CACAACCG,0.122
8,ACCGGCGC,0.0333
9,ATGTTGTG,0.0416
10,CATTCTTA,-0.0744
11,AGGAACTG,-0.367
12,ACCGCCAA,-0.107
13,TATTCCAA,0.0307
14,TCGACCAA,-0.204
15,GTGGCGTA,0.118
16,GCGTAGAC,0.0124
17,CTGTTACC,0.00711
18,TGAGATAA,-0.142
19,CATGCTGG,-0.328
20,CTCTGATC,-0.171
21,ATCCAAGA,-0.163
22,CGCCAAAA,0.13
23,ACTTCGAC,0.067
24,GACGAGCA,0.00509
25,ACGACAGA,0.328

row,Sequence,PBM E-score
1,GTGGAATA,-0.0213
2,ACTCCGCG,0.0538
3,CCTCGTCC,-0.3
4,CCTCTGAA,-0.0906
5,GGTATGAC,-0.204
6,ATATGTTC,0.108
7,CCGTGCTC,-0.0459
8,GGCCCAGA,-0.119
9,AAGCCGAT,-0.0322
10,TTACAAAA,0.0336
11,ATAATCAC,0.0354
12,CCGAGCTC,0.197
13,AGCAACAT,0.0545
14,CCAGTGCA,-0.0157
15,AGAAGATC,0.00501
16,CCCCGGGA,-0.17
17,ACTACCCA,-0.032
18,CCTGCGGC,-0.282
19,AAACCACC,-0.104
20,AAAGAATG,0.0179
21,GACCTGGA,-0.0943
22,AACCTCCT,-0.0765
23,GCCCCACC,0.0435
24,AGTGGCCC,-0.197
25,CAATCCGA,0.0611

row,Sequence,PBM E-score
1,AGCCTAAC,-0.0519
2,AGGTCATA,0.0789
3,GGACTAAC,-0.0836
4,CAGTCGAG,-0.128
5,ACATAAAT,0.0213
6,GCACAGCA,-0.0358
7,AACAACGT,0.0176
8,GCACAGAA,0.00675
9,AGACGATC,-0.0293
10,ACTGGGAC,-0.052
11,CCGGAGTA,0.0983
12,CATACCAA,-0.0379
13,CTGCGTTC,0.218
14,ACGTGCCA,-0.178
15,ATCGTCTG,0.0923
16,CCCGCGGG,-0.24
17,GGACCGTA,0.274
18,GCTTGCTA,-0.0561
19,AGTTGAGA,-0.105
20,GGCGCCAA,-0.0176
21,CGTCAGTC,-0.0936
22,AAGTTTCA,0.132

# Reference: the supplement of paper PMC3334620
